# About 200 (0.47%) of roughly 43,000 compounds were called active. Another 12% or so got no clear call; they are omitted. The call rests on the fitted dose curve; in most records, active means well fitted cell-killing curve with a large enough effect; inconclusive means small, poorly fitted or top-dose-only effect, or effect the other way; inactive means flat fitted curve, though single readings scatter. This is one part of the list.
# Assay: Cell viability qHTS assay in S16 Pmp22-F2sN cells; further: nearly all actives have a fitted effect of over 65% in size
# Details: S16 Pmp22-F2sN Schwann cells (luciferase reporters placed in the Pmp22 gene) viability, CellTiter-Glo, 24 h; series mostly up to 57.5 µM; activity change, negative = cytotoxicity: at the top concentration
# Outline: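 Rat S16 Schwann reporter line, 24 h treatment with library compounds delivered at 23 nL per well. Cell viability by CellTiter-Glo luminescence.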
# On the % scale 0 is the no-effect control and ±100 the full control effect.
row,Structure (SMILES),"activity change, negative = cytotoxicity"
1,Cc1nc(-c2ccc(S(=O)(=O)NCc3ccc(N(C)C)cc3)cc2)co1,inactive: -1.96%
2,Cc1cccc(-n2ncc3c(N4CCN(c5ccccc5)CC4)ncnc32)c1,inactive: -1.27%
3,CCN(CC)c1ccc(NC(=O)Cn2nc(C)n3cccc3c2=O)c(C)c1,inactive: -2.43%
4,CCCCNC(=O)C1CCC(CNS(=O)(=O)c2ccc(NC(C)=O)cc2)CC1 (centres undefined),inactive: 0.887%
5,COc1ccc(-c2nc3c(c(SCC(=O)N(C)c4ccccc4)n2)Cc2cc(C)ccc2O3)cc1,inactive: 11.4%
6,COc1ccc2ncc3c(-c4ccc(C)c(C)c4)nn(CC(=O)NC4CCCC4)c3c2c1,inactive: -13.7%
7,O=C(Nc1cccc(C(=O)OCc2cc(=O)n3c4c(sc3n2)CCCC4)c1)c1ccccc1,inactive: -4.24%
8,Cc1cccc(NC(=O)C(NS(=O)(=O)c2ccc3c(c2)oc(=O)n3C)C(C)C)c1 (centres undefined),inactive: 1.95%
9,O=c1c(S(=O)(=O)c2cccc(Cl)c2)cn(Cc2ccccc2)c2cc(N3CCOCC3)c(F)cc12,inactive: -1.75%
10,CC(C)c1ccc(OCC(=O)N(Cc2ccc(N(C)C)cc2)C2CCS(=O)(=O)C2)cc1 (centres undefined),inactive: -10.5%
11,CCc1ccc(NC(=O)Cn2c(=O)n(Cc3ccco3)c(=O)c3cccnc32)cc1,inactive: -1.03%
12,CCCNC(=O)CCSc1nc(-c2ccc3c(c2)OCO3)cc(C(F)(F)F)n1,inactive: 13.7%
13,Cc1cc(C)c2nc(N(Cc3cccnc3)C(=O)CCOc3ccccc3)sc2c1,inactive: 3.6%
14,Cc1ccc2nc(-c3cccnc3)c(Nc3ccccc3C)n2c1,inactive: -12.8%
15,Cc1ccc(C2c3[nH]c4ccccc4c3CCN2C(=O)CCC2CCCC2)cc1 (centres undefined),inactive: -0.126%
16,COc1ccc(NC(=O)CCc2nnc3n(CC(C)C)c(=O)c4ccccc4n23)cc1,inactive: 8.01%
17,Cc1ccc(-n2nc(C(=O)N3CCN(c4cc(Cl)ccc4C)CC3)c3c4ccccc4n(C)c3c2=O)cc1,inactive: -5.86%
18,O=C(c1ccc(CSc2nc3ccncc3n2Cc2ccccc2)cc1)N1CCCCCC1,inactive: -26.3%
19,Cc1ccc(NC(=O)Cn2ccn(-c3ccc(F)c(F)c3)c(=O)c2=O)cc1C,inactive: 3.58%
20,COC(=O)c1cc(NC(=O)c2nn(C)c3c2COc2ccccc2-3)cc(C(=O)OC)c1,inactive: 6.37%
21,Nc1c(C(=O)Nc2ccc(F)c(F)c2)sc2nc(-c3ccncc3)ccc12,inactive: 3.32%
22,COc1cccc(CNC(=O)c2cc(C)nc3c2c(C)nn3-c2cccc(F)c2)c1,inactive: -23.1%
23,CCOC(=O)c1ccc(NC(=O)Nc2cc3c(cc2N2CCCC2)n(C)c(=O)n3C)cc1,inactive: 1.8%
24,Cc1ccc(S(=O)(=O)NCCc2cn3ccsc3n2)cc1,inactive: 14.6%
25,CCC(CC)C(=O)Nc1nc2c(s1)CC(C)CC2 (centres undefined),inactive: -3.09%

row,Structure (SMILES),"activity change, negative = cytotoxicity"
1,COc1ccc(-n2nnnc2C2CCN(S(=O)(=O)c3ccc(C(C)(C)C)cc3)CC2)cc1,inactive: -0.186%
2,O=C(COCc1cc(-c2ccc3c(c2)OCO3)on1)N1CCN(c2ccccc2)CC1,inactive: -20.2%
3,Cc1cc2c(cc3c(SCc4nc(-c5ccccc5)oc4C)nnc(C)n32)o1,inactive: -3.66%
4,Cc1ccc(N2CCN(S(=O)(=O)c3ccc(F)c(C(=O)Nc4ccc(Cl)cc4Cl)c3)CC2C)cc1 (centres undefined),inactive: 1.5%
5,Cc1cc(C)cc(NC(=O)Cn2nnc(-c3nc(-c4ccncc4)no3)c2N)c1,inactive: 3.13%
6,CCn1ccc2c(OCC(=O)Nc3ccccc3C)cccc2c1=O,inactive: -9.11%
7,CC(=O)c1ccc(NC(=O)c2ccc(-c3nc(CSc4ccccc4)c(C)o3)cc2)cc1,inactive: 19.4%
8,Fc1ccc(-c2noc3ncnc(NCC4CCN(Cc5ccc(Cl)cc5)CC4)c23)cc1,inactive: -27.9%
9,Cc1ccc2cc3c(N)nn(C(=O)c4cccc(F)c4)c3nc2c1,inactive: 17.6%
10,Cc1ccc(CNC(=O)c2nnn(CC(=O)Nc3cc(C)ccc3C)c2N)cc1,inactive: -1.65%
11,COc1ccc(CCNC(=O)c2cnc3sc(N4CCCC4)nn3c2=O)cc1OC,inactive: -0.0225%
12,CN(C(=O)c1cc2c(s1)-c1ccc(Cl)cc1SC2)c1cccc(C(F)(F)F)c1,inactive: 23.1%
13,O=C(CN1C(=O)COc2ccc(S(=O)(=O)N3CCCCC3)cc21)NCc1ccc(Cl)cc1,inactive: 6.06%
14,CCOc1ccc(-c2cc(-c3nc(-c4cc(OC)c(OC)c(OC)c4)no3)[nH]n2)cc1,inactive: -12.9%
15,Cc1ccc(CN(Cc2ccco2)C(=O)COc2ccc(Cl)cc2)o1,inactive: -8.01%
16,Cc1cccc(N(C)C(=O)CCNS(=O)(=O)c2ccc3c(c2)CCN3C(=O)C2CC2)c1,inactive: -3.96%
17,N#Cc1ccc(CSc2nc3c(c(=O)[nH]2)CCCC3)cc1,inactive: -0.721%
18,COc1cc(C(CC(=O)NCCC(C)C)N2Cc3ccccc3C2=O)cc(OC)c1OC (centres undefined),inactive: 3.45%
19,COc1cc(NC(=O)CN2CCN(CC(=O)Nc3ccc(F)cc3)CC2)cc(OC)c1,inactive: 6.69%
20,Fc1ccc2ncc3c(-c4ccccc4)n[nH]c3c2c1,inactive: 8.76%
21,COC(=O)CCn1cnc2onc(-c3cc(F)cc(F)c3)c2c1=O,inactive: 20.3%
22,Cc1ccc(C)c(CS(=O)(=O)c2cn(CC(=O)N(C(C)C)C(C)C)c3ccccc23)c1,inactive: 8.05%
23,Cn1ncc2c(Nc3cccc(F)c3)ncnc21,inactive: 15%
24,O=C(Nc1c(C(=O)Nc2ccccc2F)oc2ccccc12)c1cc2ccccc2o1,inactive: 4.44%
